Assay results published in PubChem BioAssay AID2101 (National Center for Advancing Translational Sciences (NCATS), 2009).
Out of some 330,000 compounds screened, about 300 (0.091%) were called active. Inconclusive means that the source gave no clear call. Such entries were picked first, then a sample of the others. The call rests on the fitted dose curve; in most records, active means well fitted inhibition curve with a large enough effect; inconclusive means small, poorly fitted or top-dose-only effect, or effect the other way, or another doubt; inactive means no such curve, though single readings can be large or run the other way. No potency is given beside an inconclusive call; the fits are too rough.

Target: Lysosomal acid glucosylceramidase (Homo sapiens) (UniProt P04062)
Test: qHTS Assay for Inhibitors and Activators of N370S glucocerebrosidase as a Potential Chaperone Treatment of Gaucher Disease;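 on activity change, negative = inhibition: 0% = full enzyme activity and -100% = no enzyme basal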
Details: N370S GC spleen homogenate, 4MU-glucoside fluorescence; activity change, negative = inhibition: at 59.4 µM (top of the series) unless noted
Potency means the concentration at half of the fitted maximal effect.

Row | Compound | Potency | activity change, negative = inhibition
1 | Cc1cc2ncn(/N=C/c3cccnc3)c2cc1C | inconclusive [activator, single point] | –
2 | O=C1O/C(=C/c2ccccc2)c2ccccc21 | inconclusive [activator, partial curve, poor fit] | –
3 | O=C(CN1CCOCC1)Nc1ccc(-c2nc3ccccc3[nH]2)cc1 | inactive | –
4 | CN(C)CCNC(=O)/C(=C/c1ccc(-c2cccc([N+](=O)[O-])c2)o1)NC(=O)c1ccccc1 | inconclusive [inhibitor, partial curve, poor fit] | –
5 | CCOC(=O)C1=C(C)N=C2SC(C)C(=O)N2C1c1ccc(C(=O)OC)cc1 (stereo not given) | inconclusive [activator, single point] | –
6 | O=c1cc2c(nn1Cc1ccc(F)cc1)-c1ccccc1CC2 | inactive | –
7 | COc1cccc(NC(=O)CSc2nc3c(sc4ccccc43)c(=O)n2CCCN2CCCC2)c1 | inconclusive [activator, full curve] | –
8 | COc1ccc(NC(=O)CN(c2ccccc2)S(=O)(=O)c2ccccc2)c(OC)c1 | inconclusive [activator, partial curve] | –
9 | Cc1ccc2occ(/C=N/NC(=O)[C@@H](N)Cc3ccccc3)c(=O)c2c1 | inconclusive [inhibitor, partial curve] | –
10 | O=C(N/C(=C/c1cccc(Br)c1)c1nc(=S)[nH][nH]1)c1ccccc1 | inconclusive [activator, partial curve] | –
11 | CCOc1[nH]n(-c2ccc(Cl)cc2)c(=O)c1C=NCc1cccnc1 | inconclusive [activator, single point] | –
12 | Cc1ccc2c(c1)c1c(c(=O)n(-c3ccccc3)c(=O)n1CC(=O)NCC1CCCO1)n2C (stereo not given) | inconclusive [activator, single point] | –
13 | COc1cccc(C(=O)Nc2cccc(-c3ccccc3)c2)c1 | inconclusive [activator, single point] | –
14 | CCCNC1=C(C)C(=O)CC1 | inactive | –
15 | NS(=O)(=O)c1cccc(NC(=O)CSc2nc3nc(-c4cccs4)cc(C(F)(F)F)c3c(=O)[nH]2)c1 | inconclusive [activator, partial curve] | –
16 | Nc1nc2n(n1)C(c1cccc(Br)c1)CC(c1ccc(F)cc1)N2 (stereo not given) | – | inconclusive: 32.2% [activator]
17 | Cc1ccc(CN2C(=O)c3ccccc3Sc3ccc(C(=O)NCCN4CCOCC4)cc32)cc1 | inconclusive [inhibitor, single point] | –
18 | O=C(O)CC1(c2ccc(F)cc2)C2CC3CC(C2)CC1C3 (stereo not given) | inactive | –
19 | CCC1(c2ccc(F)cc2)NC(=O)N(CC(=O)N2CCc3ccccc3C2)C1=O (stereo not given) | inconclusive [inhibitor, partial curve, poor fit] | –
20 | CCCCOC(=O)c1ccc(Nc2ccc([N+](=O)[O-])cn2)cc1 | inconclusive [activator, partial curve, poor fit] | –

Row | Compound | Potency | activity change, negative = inhibition
21 | O=[N+]([O-])c1ccc(S(=O)(=O)Nc2nnc(C(F)(F)F)s2)cc1 | inconclusive [activator, partial curve] | –
22 | Nc1ccc2nc(-c3ccccc3)sc2c1 | inconclusive [activator, single point] | –
23 | COc1ccc(Cn2nnnc2CN(Cc2cc3cc(C)ccc3[nH]c2=O)C2CCCC2)cc1 | inconclusive [activator, partial curve] | –
24 | CCC(C)Nc1nc(N)c([N+](=O)[O-])c(NCc2ccccc2)n1 (stereo not given) | inconclusive [inhibitor, single point] | –
25 | COc1ccccc1-c1nnc(SCC(=O)N2CCCCC2)o1 | inconclusive [inhibitor, full curve, poor fit] | –
26 | COc1cc2c(cc1/C=C/C(=O)O)OC(C)C2 (stereo not given) | inconclusive [activator, partial curve] | –
27 | O=C(c1ccc2ccccc2c1)C1CCCN(C(=O)CN2C(=O)CSC2=O)C1 (stereo not given) | inconclusive [activator, single point] | –
28 | Cc1cc(C)c(NC(=O)C2CCCN2C)c(C)c1 (stereo not given) | inactive | –
29 | O=c1ccc2cc3c(-c4ccccc4)coc3cc2o1 | inconclusive [activator, single point] | –
30 | O=C(NCc1ccccc1)c1cccc(COc2ccc3c(c2)CCC3)c1 | inconclusive [activator, partial curve] | –
31 | Cc1nnc(SCC(=O)c2cc(C)n(C3CC3)c2C)s1 | inactive | –
32 | C#CCOCCOCCOCCNc1nc(N2CCN(C(=O)[C@H](Cc3ccc(O)cc3)n3cc([C@@H](N)C(C)CC)nn3)CC2)nc(N2CCN(C(=O)[C@H](Cc3cc4ccccc4[nH]3)n3cc([C@@H](N)Cc4ccc(O)cc4)nn3)CC2)n1 (stereo not given in full) | inconclusive [inhibitor, partial curve] | –
33 | COc1cc(/C=N/NC(=O)CC2(C)OCCCO2)ccc1OCc1ccc(Cl)cc1Cl | inconclusive [inhibitor, partial curve, poor fit] | –
34 | COc1ccc(Nc2nc3ccc(OC)cc3s2)cc1 | inactive | –
35 | CCCCCc1cc(=O)oc2c(C(CCN3CCCCC3)c3ccc(OC)cc3)c(OC)cc(OC)c12 (stereo not given) | inconclusive [inhibitor, partial curve] | –
36 | CC[C@@H]1C(c2ccccc2)=NN(c2ccc(Br)cc2)[C@H]1C(=O)N1CCOC1=O | inconclusive [activator, partial curve] | –
37 | CCOC(=O)N1CCN(CCC(=O)c2ccc(OC)cc2)CC1 | inactive | –
38 | CCCCCCCCCCOC(=O)Cn1c(COc2ccccc2C)[n+](C)c2ccccc21 | inconclusive [inhibitor, partial curve, poor fit] | –
39 | CCn1c(C)c(C)c2cc(C(=O)N3CCN(c4ccccc4)CC3)ccc21 | inconclusive [activator, partial curve] | –
40 | COc1ccc(N(CC(=O)Nc2ccc(C)c(F)c2)S(=O)(=O)c2c(C)noc2C)cc1 | inactive | –
